The whole screen tested about 310,000 compounds, of which about 14,000 (4.5%) showed an effect of 50% or more. The effect is printed as a negative number. The list shows a part of the results.
The molecules below were run against human ether-à-go-go-related gene (hERG) potassium channel (human, UniProt Q12809) (assay: primary screen, population patch clamp on CHO cells stably expressing hERG).
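Also: peak tail current of the secondary pulse compared with the same well before compound.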

Sequence of human ether-à-go-go-related gene (hERG) potassium channel (Q12809 whole entry, looked up): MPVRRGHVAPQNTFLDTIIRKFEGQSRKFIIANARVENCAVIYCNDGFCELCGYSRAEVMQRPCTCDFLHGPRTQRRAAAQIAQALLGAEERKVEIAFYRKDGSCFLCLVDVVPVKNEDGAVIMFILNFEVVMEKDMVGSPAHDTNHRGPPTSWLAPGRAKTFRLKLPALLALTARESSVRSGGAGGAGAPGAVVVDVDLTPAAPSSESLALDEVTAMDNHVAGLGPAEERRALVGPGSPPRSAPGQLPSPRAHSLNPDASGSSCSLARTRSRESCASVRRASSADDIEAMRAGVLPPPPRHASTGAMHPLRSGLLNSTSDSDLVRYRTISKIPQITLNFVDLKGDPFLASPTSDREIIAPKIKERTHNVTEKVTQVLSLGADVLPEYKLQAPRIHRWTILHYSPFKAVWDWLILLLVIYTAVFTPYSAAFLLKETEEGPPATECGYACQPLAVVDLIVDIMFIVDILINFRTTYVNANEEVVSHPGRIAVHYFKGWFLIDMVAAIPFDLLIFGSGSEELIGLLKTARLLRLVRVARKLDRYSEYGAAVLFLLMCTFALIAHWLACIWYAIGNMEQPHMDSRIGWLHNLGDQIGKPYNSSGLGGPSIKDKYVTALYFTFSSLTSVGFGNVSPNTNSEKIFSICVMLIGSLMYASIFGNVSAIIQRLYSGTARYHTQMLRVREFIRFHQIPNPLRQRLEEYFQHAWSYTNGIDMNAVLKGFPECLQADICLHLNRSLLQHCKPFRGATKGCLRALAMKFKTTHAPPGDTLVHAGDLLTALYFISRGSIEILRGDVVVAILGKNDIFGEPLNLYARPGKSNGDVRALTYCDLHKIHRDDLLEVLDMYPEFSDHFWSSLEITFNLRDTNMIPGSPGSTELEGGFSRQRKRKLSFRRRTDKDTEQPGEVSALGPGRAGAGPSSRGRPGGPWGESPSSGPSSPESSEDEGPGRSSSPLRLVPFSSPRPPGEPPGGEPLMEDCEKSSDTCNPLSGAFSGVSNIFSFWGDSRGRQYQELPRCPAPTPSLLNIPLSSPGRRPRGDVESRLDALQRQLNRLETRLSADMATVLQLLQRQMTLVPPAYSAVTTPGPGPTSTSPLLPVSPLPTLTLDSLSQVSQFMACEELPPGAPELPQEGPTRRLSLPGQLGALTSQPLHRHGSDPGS

Row | SMILES | hERG current change (%, negative = inhibition) at 10uM [%]
1 | COc1cc2c(C#N)c(N3CCCCC3)nc(N)c2c(N)n1 | 1.39
2 | O=C(CSc1nnnn1-c1cccc2c1CCCC2)NC1CCCC1 | 11.5
3 | C=CCn1c(SCc2c(C)noc2C)nc2sc3c(c2c1=O)CCC(C)C3 (stereo not drawn) | 9.79
4 | COc1ccc(NC(=O)c2c(-c3c(Cl)cccc3Cl)noc2C)c(OC)c1 | 3.18
5 | O=C(Nc1ncc(Cc2cc(Cl)ccc2Cl)s1)c1ccc([N+](=O)[O-])cc1 | 7.87
6 | OCc1cn(-c2ccc(Cl)cc2)nn1 | 24.2
7 | O=C(Nc1cccc(Cl)c1)c1ccccc1NC(=O)C1CCCCC1C(=O)O (stereo not drawn) | 16.4
8 | Cc1c(Nc2cc(=O)oc3ccccc23)c(=O)n(-c2ccccc2)n1C | -8.22
9 | CCCCn1c(N)c(N(CCOC)C(=O)CSc2nnc(-c3ccc(C(C)(C)C)cc3)n2N)c(=O)[nH]c1=O | 2.07
10 | CCCn1c(SCC(=O)Nc2nonc2C)nnc1-c1ccoc1C | -8.43
11 | O=C(CNC(=S)NC(=O)c1ccccc1Br)c1ccccc1 | 8.94
12 | CCCCCCn1cc(C(=O)O)c(=O)c2cc(F)c(N3CCCCC3)cc21 | 5.7
13 | OCC1(Cc2cccc(F)c2)CCN(Cc2ccc3cccc(F)c3n2)CC1 | -64.7
14 | O=C(NCCc1ccccn1)c1ccc(OC2CCN(CCc3ccccc3)CC2)cc1 | -41.9
15 | NS(=O)(=O)c1ccc(NCc2cc(Cl)ccc2OCc2ccccc2F)cc1 | -2.13
16 | O=C1CC(c2ccncc2)c2cc3c(cc2N1)OCO3 (stereo not drawn) | 14.3
17 | CCN(CC)S(=O)(=O)c1ccc(C(=O)NCC2(N3CCOCC3)CCCCC2)cc1 | -67.3
18 | Oc1ccc(CCC2CCCCN2Cc2nc(C3CC3)no2)cc1 (stereo not drawn) | -12.7
19 | COc1ccccc1N1C(=S)NC2CS(=O)(=O)CC21 (stereo not drawn) | 24.4
20 | COc1ccc(CN(CC(=O)NCC2CCCO2)C(=O)CNS(=O)(=O)c2ccccc2)cc1 (stereo not drawn) | 6.07
21 | O=C(NCC(c1ccco1)N1CCCC1)c1cccc(S(=O)(=O)Nc2ccc(F)cc2)c1 (stereo not drawn) | -36.5
22 | Cc1c(-n2c(SCC(N)=O)nc3ccccc3c2=O)c(=O)n(-c2ccccc2)n1C | 36.4
23 | Cc1nnc(SCC(=O)Nc2cccc(S(N)(=O)=O)c2)n1-c1ccccc1 | -0.312
24 | N#CC1(NC(=O)CSc2nc3ncc(Cl)cc3[nH]2)CCCCC1 | 9.79

— paper PMC4336329 (PLoS ONE, 2015)
